Measurements reported in the supplement of paper PMC11417369.
± gives the standard deviation of the averaged measurements. The list shows a part of the results.

test system: PfAP2-LT AP2 domain (GST-tagged); test: gcPBM binding intensity (ln(normalized median fluorescence intensity)); higher = stronger DNA binding
Procedure, shortened: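 Using an Agilent 4 × 180k array, primer-extended double-stranded 36-bp intergenic genomic probes and negative controls were exposed for 1 h to GST-fused P. falciparum DNA-binding domains expressed in E. coli. Binding was carried out in 1× PBS with 1% milk, 0.2 mg/ml BSA, 0.5% salmon testes DNA and 0.03% Triton X-100, and protein was detected with Alexa488 anti-GST antibody and a 488 nm scan. Binding intensity is the highest Masliner-normalised natural-log median intensity across replicate spots of either probe orientation.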

Sequence	gcPBM binding intensity (ln)
ATATACACACATAAGTGTACTTATATTTCATATATA [XGTACX_site8646]	8.97 ± 0.47
TAATTAACAAACTATAGTACACAAAATACTTCATAT [XGTACX_site6375]	8.79 ± 0.49
CCATGTCACAATTTTTCACACACAAAATTTATATAC [CACACA_site8628]	9.19 ± 0.39
AAAATAAAATAAAACACAAAAAAATAAAACAAAATA [CACACA_negctrl_site16]	8.87 ± 0.49
AAATAAAATATATACATATATATATTATTTAGTAAT [XGTACX_negctrl_site375]	8.62 ± 0.52
TCTATGCGTTTTAATAGTACATATAAAATTTATACA [XGTACX_site6986]	8.42 ± 0.3
AAATATGTTTATATATGTACTTATAATTCAAAATAT [XGTACX_site2167]	8.48 ± 0.4
TATATATCCATGTGTACACACAAAAAAAAATAAAGT [CACACA_site7107]	9.43 ± 0.39
AAAACAAATATATTAACACACAAACATATAAACAAA [CACACA_site6052]	9.27 ± 0.4
AGCTCATGCAGGTGTACACAAAAAGAAAAAAAATAA [CACACA_site4828]	8.93 ± 0.57
CCCCATATAATGAACACACACACTCCTCATAATTAA [CACACA_site628]	10.33 ± 0.099
ATGTCCTCAATGTTTACACACTCTTTTATATAAGTT [CACACA_site1460]	9.22 ± 0.35
ATAAATAATGTTGACACACACAATAATCTTATTATG [CACACA_site3593]	9.34 ± 0.36
TGCTTATATATACGTGCACACATATATATAAGATAT [CACACA_site8516]	9.03 ± 0.27
CTGGAGGATGAAAAAAGTACAAAAGGAGGAAATGTA [XGTACX_site8846]	8.81 ± 0.71
AATATATGGTATAATTGTACAAAAAAAAAAAAAAAA [XGTACX_site1476]	8.74 ± 0.44
TCTTTAATGAACAAATGTACAAGAACAATACCCGCA [XGTACX_site2047]	8.82 ± 0.42
CTTTAACCTTTTTATTGTACTTTTAATATTTTAAAA [XGTACX_site4457]	8.54 ± 0.5
GTGAAATGGAAAAAAAGTACAGATTACATAAGTATT [XGTACX_site6355]	8.85 ± 0.54
TATTAATTTATATCAACACACAAAATCAATATACTT [CACACA_site1757]	8.7 ± 0.42
AACATAAATATATATAGTACATATATATATATTCAA [XGTACX_site7287]	8.82 ± 0.42
TTCTATATTTTAGCTGATAATATTATGAGCTTCACT [XGTACX_negctrl_site427]	8.68 ± 0.54
CGAAATATTATGTACGCACACACATTTTTAATATAT [CACACA_site3852]	9.46 ± 0.42

Sequence	gcPBM binding intensity (ln)
ATATAGATCAGACACACACACATGTTTTAAAACTAT [CACACA_site6186]	9.54 ± 0.38
AAGGAATAATATAAAACACACACATAAATATAAATA [CACACA_site9115]	9.6 ± 0.42
TTTTGGAATTTTAGCTGTACTTTTCCTATTTTGTAT [XGTACX_site7679]	8.92 ± 0.44
TTCTTTTCTTCTACATGTACAAATATTATATATATA [XGTACX_site2996]	9.11 ± 0.36
TGAAACCATAAAGAATGTACACAGCGGTATAAGTTA [XGTACX_site674]	9.04 ± 0.45
TTAATATATTTAAATATATATAAAATATATAATATG [CACACA_negctrl_site880]	8.35 ± 0.43
AATAAAATAAGAAGCACACAAATATTATATATAAAA [CACACA_site3980]	8.96 ± 0.6
TTTTAAATAATACATACATGCATATATACACATATA [TGCATGCA_site8]	8.62 ± 0.51
TCTTATTTAAAAATAGCACACATTATGTATATATAT [CACACA_site2822]	8.9 ± 0.33
AGCTCGGAAAAATTAGCATGCAAAAAAAAAAAAAAA [TGCATGCA_site658]	8.59 ± 0.58
TATTTCACAACTTGTCGTACATTAATTGTATTATTT [XGTACX_site997]	9.12 ± 0.39
TATATAACTGTCTTCACACACACATATAAATAAATA [CACACA_site7317]	9.29 ± 0.24
ATTATTATTAATAGTACACACTATGGCATTTCAATA [CACACA_site5388]	8.8 ± 0.42
TTAGGTGTATATAATTGTACATTTTGGAAATTATAC [XGTACX_site5492]	8.62 ± 0.43
ATCTTTCATCTACCAAGTACAAATTACTTTTTTTTT [XGTACX_site7001]	8.91 ± 0.49
TTAAATTGAATTAGTTAACACACAACTTTTATTTCA [CACACA_site8921]	8.63 ± 0.52
TCTTCATACGACTAAAAAACATTAGACTGATAAAAA [CACACA_negctrl_site628]	8.39 ± 0.4
TATTACACATATTATACACACATATATTATATATAT [CACACA_site4951]	9.18 ± 0.3
TAACATATTTTTAATACACACTTAAAAAAGTACTTA [CACACA_site4875]	8.47 ± 0.42
TATAGCATAAATATGTGTACATATTTATATGATATT [XGTACX_site6333]	8.85 ± 0.5
TATTTATTTATATAAACACACATAAATATAAATATA [CACACA_site6653]	8.47 ± 0.4
TATATATAATATTATACACACATATATGCATAATAT [CACACA_site54]	9.07 ± 0.34
ATATATATTTAAAAAAGTACAGAAGAAAATAACCCA [XGTACX_site642]	8.8 ± 0.42

Sequence	gcPBM binding intensity (ln)
TTGTGTTTTACATATACATGCAAATTTTTTTTTTTA [TGCATGCA_site303]	8.4 ± 0.47
TAAATCATTTCATGGCATTTACACAAAATTTTTTAA [CACACA_negctrl_site1260]	8.35 ± 0.39
TTTCTTTTTTCATTTACACACAATAATATAAGAATA [CACACA_site3164]	8.62 ± 0.4
TACACAAATATATATATATATATATATATATATATA [XGTACX_negctrl_site305]	10 ± 0.5
AACGTTCAATTTAAATGTACAAATGTATTTAAATAT [XGTACX_site315]	8.82 ± 0.43
AGTTTAGAATTTAATACACACAAAAAAAAAAAATTA [CACACA_site7698]	8.74 ± 0.46
AAATACAAAATTGTTACACACATATTAAGTATGACA [CACACA_site4421]	8.98 ± 0.47
TATTTATTTTTCTGTTGTACTTTTCAACATGTTACA [XGTACX_site7457]	8.91 ± 0.52
TCTACATATTAATTATGTACGAATTATTATTAGTAA [XGTACX_site6924]	8.51 ± 0.37
TAAATGGGTGTTAATGCACACGATATGTCTATATAT [CACACA_site5321]	8.98 ± 0.38
TATTTATGTTCATATAAACACACGTAAAATTCAAGG [CACACA_site1538]	8.72 ± 0.44
GTCCCTATAAGGGGAACACACATAAATGGATATATA [CACACA_site6612]	8.88 ± 0.52
TCAATAAAAAAAAACGCACACACAAATATATTCCAT [CACACA_site1223]	9.63 ± 0.2
CATATTCATAAAAGTTGTACATGCAATTTTTTTTTT [XGTACX_site2261]	8.55 ± 0.48
AAAAATCAATTAGAAGAACACACGTAAATTTTTTTT [CACACA_site2396]	8.74 ± 0.54
CATTATATGATTTATGTGCACATTCATTTATTTTAA	8.93 ± 0.48
TATTAATAAAACCGTTGTACTACATACATAAATATT [XGTACX_site5578]	8.6 ± 0.45
ATACTATATATATAAGTGCATGTTCATTATACCTAA	8.75 ± 0.35
ATATATATTATGTGTGTGCACTTTTGTTATTATTAT	9.37 ± 0.3
ATAACTAAATGATATTGTACAAAATAATTATATATT [XGTACX_site1331]	8.84 ± 0.43
AGGAAAAACTTGAATGCATGCGCACATTCTAGTTTG [TGCATGCA_site776]	8.93 ± 0.4
TATTATTACGTAATATGTACATATATTTATACCACT [XGTACX_site5918]	8.94 ± 0.45
AAAAAAAAAAAAAAATGTACAAAAATTACTATAAAA [XGTACX_site7683]	8.56 ± 0.61

Sequence	gcPBM binding intensity (ln)
TTTTTTTTTGTTTACACACACAAAATATTATATGTA [CACACA_site2470]	9.12 ± 0.3
AAAAATATATATAACACACACATAATATATATATAT [CACACA_site2537]	9.4 ± 0.38
TTATAACACATTACATGTACAAATATAAATATATTC [XGTACX_site6503]	8.73 ± 0.39
ATATATCATATTATAGTGCATTTATAATAATATTAT	8.62 ± 0.36
TATTATCTGTAGTGTACACATATTATATAGTACTTT [CACACA_site4582]	8.96 ± 0.4
AAAATTATATATTATTGTACATAAAATTTTGACATA [XGTACX_site4886]	8.46 ± 0.42
ATAACGATATATGTGCGTACTTATAGAATAAGCAAA [XGTACX_site6743]	9.02 ± 0.47
AAGGATATAACATACACACACACACCGATATATATA [CACACA_site6136]	10 ± 0.29
TATTTTTTTTTTATATGTACATAATTTCAAATAAAT [XGTACX_site7747]	8.41 ± 0.33
ACAAATCTAAGATAGTGTACATTTATATATATATAT [XGTACX_site8740]	9.23 ± 0.28
TTTATTTATCTGTATACACACTTTAATGAAAAGTTG [CACACA_site5400]	8.71 ± 0.49
ATTTTTTTTTTTTTTTTTTTTTTTTGGAGAAAGAGA [CACACA_negctrl_site1119]	8.11 ± 0.4
ATATATATATAATAAACACACACATATACATATATG [CACACA_site9145]	9.46 ± 0.16
TATATATATATATAAGTGCATATAAAAATCGTTCGT	9.08 ± 0.24
TTTATATACACACAGAAGAACAGAAATATTATATAT [TGCATGCA_negctrl_site483]	8.99 ± 0.4
ATAAATACTAGGCACACACACATATATATATATATA [CACACA_site2080]	10.4 ± 0.014
ATATATATATATATATGTACATATATGTATACCTTA [XGTACX_site6791]	9.59 ± 0.13
CAATAGTTCTTATGGGTGCAAACCACATATATATAA [GTGCAC_site9606]	8.55 ± 0.53
AATCGATTGGATAATATTTTTTCTCTTAATTTTTTG [GTGCAC_negctrl_site165]	8.39 ± 0.38
AAAAAAATAAAAAGGAACGTCTATAGTTAATTTATT [CACACA_negctrl_site919]	8.8 ± 0.59
